# Data: the RNAGym collection of RNA variant scans (doi:10.7554/elife.90254)
# The source gives no read counts; variants with many changes may rest on few reads.
# B1: LINE1-mini (parent)
# chain: GGCAGAGCUCAACACAGCGUGGCAAAGUGGCUGUGGCUAGACUGCC
# Variants of: B1
# Assay: self-cleavage, relative activity (ratio to wild type); higher = more cleavage; in vitro, sequencing; the parent is a self-cleaving ribozyme
row,Variant,self-cleavage
1,GACAGAGCUCAACACAGCGUGGAAAAGUGGCUGUGGCUCGACUGCC [G2A C23A A39C],0.2
2,GACAGAGCUCAACACAGCGUGGCAAAGUGGCUGUAGUUACACUGCC [G2A G35A C37U G40C],0.01
3,GACAGAACUCAAUACAGCGUGGCAAAGUGGCUGUGGCUAGACUGCC [G2A G7A C13U],0.32
4,GACAGAGCUCAACACAGCGUGGCAAAGUGGCUAUGGCUAGACUGCA [G2A G33A C46A],0.25
5,GACAAAGCUCAACACCGCGUGGUAAAUUGGCGGUGGCUAGACUGCC [G2A G5A A16C C23U G27U U32G],0.04
6,GACAGAGCUCAACAUAGCGUGGCAAAGUGACUGGGGCUAGACUGCC [G2A C15U G30A U34G],0.48
7,GACAGAGCUCAACACAGCGUGGCAAAGUGGCUGUGGGUUGACUGCC [G2A C37G A39U],0.2
8,GACAGAGCUCAACAUAGCGUGGCAAAAUGGCUGUGGCUAGAAUGCC [G2A C15U G27A C42A],0.05
9,GACAGAGCUCAACACAGCGUGACAAAGUGGCUGUGGCAAGACUGCC [G2A G22A U38A],0.24
10,GACAGAGCGCAACAUAGCGUGGCAAAGUGGCUGUGGCUAGACUGAC [G2A U9G C15U C45A],0.05
11,GACAGAGCUCAACACAGCGUUGCAAAGAGGCUGUGGCUAGAAUGCC [G2A G21U U28A C42A],0.12
12,GACAGAGCUCAACACAGCGUGGCAAAGUGGCUGUGGCUAGACUUCG [G2A G44U C46G],1.08
13,GACAGAGCUCAACACAGCGUGGCAAAGUGGAUGUGGCUAGACUGCA [G2A C31A C46A],0.15
14,GACAGAUCUCAACACAGCGUGGCAAAGUUGCUGUGGCUAGACUGCC [G2A G7U G29U],0.13
15,GACAGACAUCCACACAGCAUGGCAAAGUGGCUGUGGCUAGACUGCC [G2A G7C C8A A11C G19A],0.03
16,GACAGAGCUCAACACACCGUGGCAAAGUGGGGGAGGCUAGACUGCC [G2A G17C C31G U32G U34A],0
17,GACAGAGCUCAACACACCGUGGCAAAGUGGCUGUAGCUAGACUGGC [G2A G17C G35A C45G],0.13
18,GACAUAGCGCAACACAGCGUGGCAAAGUGGCUGUUGCUAGACUGCC [G2A G5U U9G G35U],0.14
19,GACAGAUAGCAACACAGCGUGGCUAAGUGGCUGCGGCUGGACUGCC [G2A G7U C8A U9G A24U U34C A39G],0.65

row,Variant,self-cleavage
1,GACAGAGCACAACACAGCGUGACAAAGUGGCUAUGACAAGACUGCC [G2A U9A G22A G33A G36A U38A],0.14
2,GACAGAAGUCAACACAGCGCGGCAAAGUGGCUGGGGCUAUACUGCC [G2A G7A C8G U20C U34G G40U],0.36
3,GACAGAGCUCAACACAGCGUCGCAAAGUGGCUGUGGUUAGACUGCC [G2A G21C C37U],0.14
4,GACAGAACUCAACACAGCGUGGCAAAGUGGCUGUAGCUGGACUGCC [G2A G7A G35A A39G],0.44
5,GACAGAGCUCAACACAGCGUGGCAAAGUCGCUGUGGUUGGACUGCC [G2A G29C C37U A39G],0.03
6,GACAAAGCUCAACACAGCGUGGCAAACUGGCUGUGGCUAGACUGCC [G2A G5A G27C],1.68
7,GACAGAGCUCAACACAGCGUGGUCAAGUGGUUGUGGCUAGACUGCC [G2A C23U A24C C31U],0.12
8,GACAGAGCUCAACACAGCGUGGCAAAGUGUCUGUGGUUAGACUGCC [G2A G30U C37U],0.05
9,GACAGAGCUCAACACAGCGUGUCAAAGUGGUUGUGGCUAGACUGCC [G2A G22U C31U],0.43
10,GACAGAGCUCAACACAGCGAGGCAAAGUGGCUGGUGCUAGACUGCC [G2A U20A U34G G35U],0.18
11,GACAGAGCUCAACACAGCAUUGCAAACUGGCUGUGGCUAGAUUGCC [G2A G19A G21U G27C C42U],0.05
12,GACAGACCUCAGCACAGCGUGGCACAGUCGCUGUGGCUAGACUGCC [G2A G7C A12G A25C G29C],0.01
13,GACAGAGCGCAACACACGGUGGCAUAGUGGCUGUGGCUAGAUUGCC [G2A U9G G17C C18G A25U C42U],0.21
14,GACAGAGCUCAACAUAGCGUGGCAAAAUGGCUGUGGCUAAACUGCC [G2A C15U G27A G40A],0.33
15,GACAGAGCUCAACACAGCGUGUCAAAGUGGUUGUGGCUUGUCUACC [G2A G22U C31U A39U A41U G44A],0.02
16,GACAGAGCUCAACAUAGCGUGGCAAAGUGGCGGUGGCUAGAUUGCC [G2A C15U U32G C42U],0.19
17,GACACACCUCAACACCGCGUGGCAAAGUGACUAUGGCUACACUGCC [G2A G5C G7C A16C G30A G33A G40C],0.02
18,GACAGAGCGUAACAUAGCGUGGCAAAGUGGCUGUGGCUUGACUACC [G2A U9G C10U C15U A39U G44A],0.11
19,GACAGAGCUCAACAUAGCGUGGCAAAGUGGCUGUGGCAAGACUGCC [G2A C15U U38A],0.28

row,Variant,self-cleavage
1,GACAGAGCUCAACACAGCGUGCCAAAGUGGCUGUCGUUAGACUGUC [G2A G22C G35C C37U C45U],0.06
2,GACAGAGCUCAACACAUCGUGGCAAAGUGGCUCUGGCUAGACUGCC [G2A G17U G33C],0.15
3,GACAGAGCUCAACACAGCGUGGCAAAGUUACUGUGGCUAGACUGCC [G2A G29U G30A],0.34
4,GACAGAGCUCAACACAGCGUGGCAAAGUGGCUGUUGCUAGACUCCC [G2A G35U G44C],0.14
5,GACAGAGCUCAACACAGCGUGGCAAAGUGGCUGUGUCUUGACUGCC [G2A G36U A39U],0.03
6,GACAGAGCUCAACACAGCGUGACAAAGUGGCUGUGGCUAGACUGCA [G2A G22A C46A],0.17
7,GACAGAGCUCAACACAGCGUGGCAAACUGGCUGUGGCUAUACUGCC [G2A G27C G40U],0.19
8,GACAGAAAUCAACACAGAGUGGCAAAGUGGCUGUGGCUAGACUGCC [G2A G7A C8A C18A],0.54
9,GACAGAUCUCAACAAAGCGUGGCAAAGUGGCUGUGGCUAGACUGCC [G2A G7U C15A],0.07
10,GACAGAGCUCAACACAGCGUUGGAAAGUGGCUUUGGCUAGACUGCC [G2A G21U C23G G33U],0.21
11,GACAGAGCUCAACACAGCGUGUCAAAAUUGCUGUGACUAGACUGCC [G2A G22U G27A G29U G36A],0.09
12,GACAGAGCUCAACACAGCCUGGCAAAGUGGCUGUGGCUAGCCUGCC [G2A G19C A41C],0.07
13,GACAGAGCUCAACACAGCGUGGAAAAGUGGCUGUGGCUAAACUGCC [G2A C23A G40A],0.32
14,GACAGAGCGCAAAACAGCGUGGCACAGUGGCUGUGGCUAAACUGCC [G2A U9G C13A A25C G40A],0.1
15,GACAUAGCUCAACACAGCGUUGCAACGUGGCUGUGGCUAGACUGCC [G2A G5U G21U A26C],0.2
16,GACAGAGCUCAACACAGCACGGCGAAGUGCCUGUGGCUAGGCUGCC [G2A G19A U20C A24G G30C A41G],0.06
17,GACAGAGCUCAACACAGCGUGACAUAGUGGCUGUGGCUAGACUGCC [G2A G22A A25U],2.35
18,GACAGAGCACAAAACAGCGUGGCAAAGCGGCUGUGGCAAGACUGCC [G2A U9A C13A U28C U38A],0.07
